The other results are listed elsewhere or left out. Further columns of the screen follow, without active or inactive calls. Compounds called inactive in the main read-out are mostly missing here.
test: beta-lactam sensitization of Mtb H37Rv, H37Rv (AID 434955);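 note: growth measured after seven days incubation then overnight dye step; 0% = bacteria only wells and 100% = bacteria with antibiotic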; conditions: M. tuberculosis H37Rv growth with meropenem, percent inhibition; measured here: primary screen without meropenem; at 25 µM

Compound	inhibition [%]
COc1ccc(N(C(=O)c2cccnc2)S(=O)(=O)c2ccc(F)cc2)cc1	3.58
O=C(O)C1CCCN(C(=O)NCc2ccccc2)C1 (centres undefined)	2.09
N#CCSc1nc2ccccc2c2nc3ccccc3n12	1.57
COc1ccc(C(=O)NC(C)c2cnn(-c3ccccn3)c2C)o1 (centres undefined)	-1.84
CCNC(=S)N/N=C1\C(=O)c2cccc3cccc1c23	28.2
O=C1COc2ccc(C(=O)CCl)cc2N1	45
C=CCSc1nccc(-c2nn(-c3ccc(C)cc3)ccc2=O)n1	20.7
CC(C)C[C@H](NC(=O)c1nc[nH]c1C(=O)N1CCN(C(=O)OC(C)(C)C)CC1)C(=O)OCc1ccccc1	20
Cc1cccc(NC(=O)CS(=O)(=O)c2c[nH]c3ccccc23)c1C	3.11
COc1ccc(CSc2nnnn2-c2ccc(C(=O)O)cc2)cc1	-1.34
CC(C)[C@@H](NC(=O)OC(C)(C)C)C(=O)NCC1CCC(C(=O)N[C@@H](Cc2ccccc2)C(=O)O)CC1 (some centres undefined)	2.44
Fc1ccc(C2CC(c3ccccc3)Nc3ncnn32)cc1 (centres undefined)	-9.98
COc1ccc(NC2CCCN(C(=O)CCCn3cncn3)C2)cc1 (centres undefined)	1.97
Cc1ccc(C(=O)NC(C)c2ccccc2)cc1S(=O)(=O)N1CCOCC1 (centres undefined)	-4.65
O=C(NCc1ccccn1)C1CCN(S(=O)(=O)N2CCC3(CC2)OCCO3)CC1	3.99
O=C1N/C(=C\c2ccc(O)cc2)C(=O)c2ccccc21	44.9
CSc1ccccc1OCc1cc(C(=O)N2CCC(Oc3cccnc3)CC2)no1	99.6
COc1ccc(CC(C)CC(=O)NCCc2ccc(OC)c(OC)c2)cc1 (centres undefined)	-3.03
CN(C)c1cccc2c1c(NS(=O)(=O)c1cn(C)cn1)nn2C	1.82
Cn1nnnc1Sc1ncnc2scc(-c3ccccc3)c12	15.1
C=C(C)C1Cc2c(C)nn(-c3cccc4ccccc34)c2C1 (centres undefined)	40.9
O=C(COc1ccccc1Cl)N1CCN(c2ncccn2)CC1	-0.7

Compound	inhibition [%]
Cc1cc(C)c(-c2c(O)c3ccccc3n(C)c2=O)c(C)c1	-1.69
Cc1cc(C)cc(C(=O)N2CCC(CCC(=O)NC3CC3)CC2)c1	-0.23
Cc1ccc(Cn2nnnc2CN2CCC(n3nnc4ccccc43)CC2)cc1	61.3
Cc1ccc(C)c(NC(=O)Cn2nc(C)c3ccccc3c2=O)c1	1.82
COc1cccc(CSc2nnc(-c3ccncc3)n2N)c1	-10
CCCNS(=O)(=O)c1ccc(CCC(=O)N2CCC(C)CC2)cc1	6.13
COc1ccccc1NC(=O)C(C)n1cnc2c(oc3nc4c(cc32)CCCC4)c1=O (centres undefined)	-3.83
Cc1c(C(=O)OCC(C)C)[nH]c2c1C(=O)CC(c1ccco1)C2 (centres undefined)	-3.43
Cc1ccccc1CS(=O)(=O)Cc1ccc(C(=O)NCCCN2CCCC2=O)o1	-8.77
Cn1cc(CN2CCCC(CNS(=O)(=O)c3cccc4cccnc34)C2)cn1 (centres undefined)	8.97
COc1ccc(CN2C(=O)c3cccnc3C2=O)cc1S(=O)(=O)N1CCOc2ccc(Cl)cc21	-4.32
O=C(Oc1cccc(C(=S)N2CCOCC2)c1)c1cccc(Cl)c1	8.7
CCOc1ccc(N(CC(=O)NCCSCc2ccccc2Cl)S(C)(=O)=O)cc1	-1.02
Cc1cccc(NC(=O)c2cccc(N3C(=O)C4C5C=CC(C6CC56)C4C3=O)c2)c1 (centres undefined)	3.22
CCSc1nc(N)c2c3c(sc2n1)CN(C)CC3	1.74
CCC(C)[C@H](NC(=O)NCCCN1CCOCC1)C(=O)OC (some centres undefined)	-0.32
COc1ccc(Cl)cc1NC(=O)Nc1ccc(Br)cn1	5.18
O=C(Cc1cccc(C(F)(F)F)c1)NCc1cccnc1	-3.53
COc1ccc(C(=S)N2CCOCC2)cc1OS(=O)(=O)c1ccc(Br)cc1	1.21
CCOC(=O)C1C(c2cccc(Cl)c2Cl)NC(=O)NC1(O)C(F)(F)F (centres undefined)	-6.96
O=C(OCc1ccccc1F)c1ccc2c(c1)-c1ccccc1C2=O	4.48
Cc1cc(N2CCOCC2)ccc1/C=C1\NC(=O)N(CC(=O)Nc2ccccc2C)C1=O	11.1

Compound	inhibition [%]
O=C(COc1ccc(Cl)cc1)NN=C1CCCCCCC1	-4.25
CC(C)c1ccc(CNc2ncc(Br)cn2)cc1	6.24
CCOC(=O)c1c(N)c(C#N)cn1-c1ccccc1	-0.17
O=C(CCCc1ccccc1)Nc1ccnn1C1CCN(Cc2ccccn2)CC1	7.88
CC1Cn2c(COc3ccccc3)nnc2S1 (centres undefined)	-5.95
Cc1csc(NC(=O)c2ccc(C)c(S(=O)(=O)N3CCCCC3)c2)n1	5
CC(C)(C)C1CCC(OCC(O)CN2CCN(c3ccccn3)CC2)CC1 (centres undefined)	22.4
O=C(CSc1nnc(CNC(=O)c2ccc(F)cc2)o1)NCC1CCCO1 (centres undefined)	1.53
Cc1cccnc1NC(=O)CCc1nnc2ccc(N3CCC4(CC3)OCCO4)nn12	-5.73
COc1cc(/C=C/C(=O)OCC(=O)Nc2ccc(Cl)cn2)ccc1O	51
CCn1cc(S(=O)(=O)c2ccc(OC)cc2)c(=O)c2cc(OC)ccc21	-3.8
COc1ccc(/C=N/NS(=O)(=O)c2ccc(F)cc2)cc1CN1CCSCC1	-6.01
CCOC(=O)C1CCCN(Cc2ccccc2OCC)C1 (centres undefined)	1.5
Cn1cc(CN2CCC(n3nccc3NC(=O)c3ccccc3Cl)CC2)cn1	-12.4
COc1ccc(N(CC(=O)NCCSCc2ccccc2C)S(=O)(=O)c2ccccc2)cc1	0.48
O=C(COc1ccccc1F)N1CCN(S(=O)(=O)/C=C/c2ccccc2)CC1	1.2
COCCCN1CC(=O)N2C(c3ccc(C)cc3)c3[nH]c4ccccc4c3C[C@H]2C1=O (some centres undefined)	1.96
O=C1CC(Nc2ccc(N3CCOCC3)cc2)C(=O)N1C1CCCCC1 (centres undefined)	26.2
O=C(O/N=C1/CCSc2ccccc21)c1ccc(F)cc1	94.4
O=C(CN1CCN(S(=O)(=O)c2ccccc2)CC1)NC(=O)NC1CCCCC1	6.21
Cn1c(N)c(C(=O)COC(=O)c2cc(-c3ccco3)nc3ccccc23)c(=O)n(Cc2ccccc2)c1=O	8.68
CCc1ccc(C2CC(c3cccc(OC)c3)n3nc(N)nc3N2)cc1 (centres undefined)	-0.53

Compound	inhibition [%]
CCc1c(C)nc(N)n2c(SCC(=O)Nc3ccccc3OC)nnc12	-2.4
CCOc1ccccc1-n1c(COc2ccc(C)cc2)nnc1SCC(N)=O	3.68
O=C(N/N=C/c1cccc(Br)c1)c1ccc(Cn2cc(Br)cn2)o1	41.5
C/C=C/COC(=O)c1[nH]c2c(c1C)C(=O)CC(c1ccc(N(C)C)cc1)C2 (centres undefined)	66.8
Cc1cc(NC(=O)CSc2nnc(-c3ccco3)n2Cc2ccco2)no1	0.27
CCC1(CC)NC(=O)N(CC(=O)OC(C)C(=O)Nc2cc([N+](=O)[O-])ccc2OC)C1=O (centres undefined)	4.86
CC(C)C1CC(CCNCc2ccc(N(C)C)cc2)(c2ccccc2)CCO1 (centres undefined)	28.7
Cc1ccc(-n2c(-c3ccncc3)nnc2-c2ccco2)cc1	1.17
COc1ccc(C2CC(c3cccc(C)c3)n3ncnc3N2)cc1 (centres undefined)	0.85
COC(=O)Cn1c2ccccc2c2nc(C)sc21	28.9
CCOC(=O)C1CCN(C(=O)CSc2cc(=O)n(CC)c3ccccc23)CC1	2.24
O=C(CN1C(=O)C2C3C=CC(C3)C2C1=O)OCC(=O)c1ccc(Br)cc1 (centres undefined)	12.7
N#Cc1ccccc1NC(=O)CSc1nnc(-c2ccccc2O)n1-c1ccccc1	9.96
CC(Cc1ccccc1)NC(=O)CN1C(=O)c2ccccc2S1(=O)=O (centres undefined)	-1.1
Cc1nc(SCc2cccnc2)[nH]c(=O)c1C	0.15
Cc1cc(C)c(C)c(S(=O)(=O)N2C(=S)NC(=O)C2C(C)C)c1C (centres undefined)	18.9
O=C(Nc1ccc(Cl)c(Cl)c1)O/N=C/c1ccncc1	90.7
Cc1ccccc1C(=O)N1CCC(n2nccc2NC(=O)C2CC2)CC1	0.68
CCOC(=O)c1ccsc1NC(=O)CCS(=O)(=O)c1ccccc1	9.56
CSc1ccc(/C=C(/NC(=O)c2ccco2)C(=O)N2CCCCCC2)cc1	-8.77
Cc1nnc(SCc2ccc(Cl)cc2)nc1/C=C/N(C)C	19.5
O=C(Cn1c(C(F)(F)F)nc2ccccc21)c1ccc(Cl)cc1	-6.22

Compound	inhibition [%]
CCOC(=O)CSc1nnc(NC(=O)C2CC(=O)N(c3ccc(F)cc3)C2)s1 (centres undefined)	-5.82
Cc1ccccc1N1CCN(C2CCCN(C(=O)CCN3CCCCO3)C2)CC1 (centres undefined)	4.07
O=C(CN1C(=O)c2cccnc2Oc2ccc(Cl)cc21)NCCc1ccccc1	-5.72
Cc1cc(C)n(-c2nc(-c3ccc(Cl)c(Cl)c3)cs2)n1	-12.2
CCCCCN1CC(=O)N2C(C)c3[nH]c4ccccc4c3C[C@H]2C1=O (some centres undefined)	4.27
CCC(C)[C@@H]1NC(=O)N(CCCN2CCCC2=O)C1=O (some centres undefined)	3.32
O=C(Nc1nnc(SCc2cccnc2)s1)C1CC(=O)N(c2ccc(F)cc2)C1 (centres undefined)	-3.3
CCOC(=O)c1c(NC(=O)c2c(C(=O)O)cccc2[N+](=O)[O-])sc2c1CCCC2	-6.81
CC/C(=N\NC(=O)c1ccc(-c2ccccc2)cc1)C12CC3CC(CC(C3)C1)C2	3.69
CCCCCCCC(=O)N/N=C/c1ccc(Br)cc1	99.3
CC(C)(C)C(=O)/C=C(N)/C=C/c1ccccc1	10.1
N#CCCCSc1nnc(-c2ccccn2)o1	-4.69
COc1cc(Cc2nccc3cc(OC)c(OC)cc23)c(S(=O)(=O)O)cc1OC	3.7
O=C(OCC#CCSc1nc2ccccc2o1)c1ccco1	99.9
CCn1nnnc1SCC(=O)c1ccc(C)cc1C	-2.22
CCOC(=O)c1cc(C(=O)OCC)cc(-n2cc(O)c(C(=O)OCC)n2)c1	8.82
CCOc1ccc2nc(SCC(=O)Nc3nonc3C)[nH]c2c1	1.61
O=C(c1cnn2c(C(F)(F)F)cc(-c3cccs3)nc12)N1CCN(C(c2ccccc2)c2ccccc2)CC1	40
CCOC(=O)C1=C(C)NC2=C(C(=O)CCC2)C1c1cccnc1 (centres undefined)	2.35
Cc1nn(C)c(C(=O)NC(=S)Nc2ccccc2Br)c1Cl	11.4
Cc1cc(C(=O)CSc2nc3ccc(Cl)cc3[nH]2)c(C)n1C	-16.5
